In a compilation of properties of binary mixtures (doi:10.1021/je4007986):
Several values for one entry are separate records, joined by “and”; a condition that tells them apart may be missing. Equal values may be shown once. Some of these densities may be calculated back from excess volumes.

Assay: xn = mol fraction of the nth substance listed
Details: 298.15 K, 101 kPa

CCCCCCCCn1cc[n+](C)c1.[Cl-] + O
Details	mass density [kg/m3]
x1 = 0.005	998.7
x1 = 0.0058	998.8
x1 = 0.0066	999
x1 = 0.0074	999.1

CCCCCC[n+]1ccn(C)c1.[Cl-] + O
Details	mass density [kg/m3]
x1 = 0.003	998.7
x1 = 0.0031	998.9
x1 = 0.004	999.2
x1 = 0.0047	999.8
x1 = 0.005	999.8
x1 = 0.0061	1000.2
x1 = 0.0082	1001.7
x1 = 0.0083	1001.6
x1 = 0.0094	1002.2
x1 = 0.01	1002.5
x1 = 0.0106	1002.9
x1 = 0.0158	1005.6
x1 = 0.0178	1006.6

CCCC[n+]1ccn(C)c1.[Cl-] + O
Details	mass density [kg/m3]
x1 = 0.0012	998
x1 = 0.0022	998.6
x1 = 0.0092	1003.6
x1 = 0.0093	1003.5
x1 = 0.0106	1004.4
x1 = 0.0136	1006.7

CC[n+]1ccn(C)c1.[Cl-] + O
Details	mass density
x1 = 0.0015	998.4 kg/m3 and 998.5 kg/m3
x1 = 0.0029	999.9 kg/m3
x1 = 0.0076	1004 kg/m3
x1 = 0.0078	1003.8 kg/m3
x1 = 0.0093	1005.5 kg/m3
x1 = 0.0095	1005.3 kg/m3
x1 = 0.0112	1006.6 kg/m3
x1 = 0.0126	1008.1 kg/m3
x1 = 0.0129	1008.2 kg/m3
x1 = 0.0144	1009.8 kg/m3
x1 = 0.0147	1009.7 kg/m3
x1 = 0.016	1011 kg/m3
x1 = 0.0166	1011.2 kg/m3
